This is one part of the list.

The target in this test is T1, OsWOX13 (Oryza sativa, UniProt Q5QMM3 1-267).
T1 sequence: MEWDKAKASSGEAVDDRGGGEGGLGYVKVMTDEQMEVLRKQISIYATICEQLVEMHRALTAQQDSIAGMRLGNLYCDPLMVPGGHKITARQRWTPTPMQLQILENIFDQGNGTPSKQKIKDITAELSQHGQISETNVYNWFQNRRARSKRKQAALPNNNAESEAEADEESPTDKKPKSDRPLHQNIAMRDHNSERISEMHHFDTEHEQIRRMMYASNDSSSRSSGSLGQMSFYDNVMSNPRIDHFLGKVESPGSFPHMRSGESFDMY
Briefly: protein-binding microarray (RPBM); PBS, 2% BSA, 51.3 ng/ul salmon testes DNA, 50 uM zinc acetate, 200 nM TF, 25 C, 1 h; high values mean tight binding. Particulars: protein: recombinant; tags: N-terminal polyhistidine and DsRed monomer fusion (pET32a); label: CyDye5-dUTP incorporated in the synthesized complementary strand; 3' TTTTT single-stranded linker to array surface; dsDNA, one strand shown. A digest of the protocol: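 Transcription factors were made in E. coli BL21-CodonPlus as N-terminal fusions to a polyhistidine tag and DsRed, then purified on Ni–NTA. After primer extension with Cy5-dUTP and blocking with 2% BSA, a custom Agilent array was exposed for 1 h at 25 °C to 200 nM protein in PBS, 2% BSA, salmon testes DNA and 50 µM zinc acetate. Washed arrays were scanned on an Axon 4000B, and the binding signal is per-feature fluorescence intensity in arbitrary units.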
With “AGCAGTAATTACGCTAGACACGAACCTTCCGCCTATCTCACGGAGTCACCTAGTGCAG”, the binding signal is 19000 fluorescence intensity (a.u.). To “AATAATATTAATAGTGTTGACTAGTGTTAAGAGATATGTTCGGAGTCACCTAGTGCAG” belongs 3720 fluorescence intensity (a.u.). The figure for “TCGACGAATATATAATTAGTCCCTGTCCCACGTGCCATTTCGGAGTCACCTAGTGCAG” is 3920 fluorescence intensity (a.u.); for “CAGTATAAGCACGATTGAGATTGATAAAATATCACATGTCCGGAGTCACCTAGTGCAG” it is 9990 fluorescence intensity (a.u.); for “ATTGAAACATATGATTAATTTTAATCAGAATATAATCATGCGGAGTCACCTAGTGCAG” it is 28200 fluorescence intensity (a.u.).

As to “TCTCAACATGCTTCGTCAGTAATTGATGAAGATGTGCCGGCGGAGTCACCTAGTGCAG”, the binding signal was 8760 fluorescence intensity (a.u.). The figure for “TATAGTCTACTTAACTAGCTAATTAAGCCATTGCAACGGGCGGAGTCACCTAGTGCAG” is 4720 fluorescence intensity (a.u.); for “CATGAAGAGAGCAAATTGATTGGGCCGGAAGTCGCTCCGGCGGAGTCACCTAGTGCAG” it is 29100 fluorescence intensity (a.u.); for “GAATTTTGGGTGATTGAATAATGTATGGATGAGGCATATACGGAGTCACCTAGTGCAG” it is 22400 fluorescence intensity (a.u.). For “TTATTAGATTAATCCAAATTATGAGGTGATAATAATTATTCGGAGTCACCTAGTGCAG”, the binding signal was 8410 fluorescence intensity (a.u.). In the case of “ATCGTCTGATTTGCACCGTGGAGTCAGATCAGATGCCATCCGGAGTCACCTAGTGCAG”, the binding signal was 10500 fluorescence intensity (a.u.). Consider “CGCCAATTATATAAGCTGAGCCACACCGCCATAGACCAAGCGGAGTCACCTAGTGCAG”, for which the binding signal was 4700 fluorescence intensity (a.u.). As for “CTGGTTAATTAGCTACCATAACAGTGCTCTCAGATCTCGACGGAGTCACCTAGTGCAG”, the binding signal was 23700 fluorescence intensity (a.u.).

As to “TCTAAATTAATCTTTAGTTCTTGACCGCAAAATATGAAGCCGGAGTCACCTAGTGCAG”, the binding signal was 14800 fluorescence intensity (a.u.). The figure for “TTTCTATCATTTGATTTATTGTTAAATATAATACTACTACCGGAGTCACCTAGTGCAG” is 19500 fluorescence intensity (a.u.). Turning to “AATAAATAATTAATGGGCAAACATTTTATGTTTGTATATTCGGAGTCACCTAGTGCAG”, the binding signal was 23900 fluorescence intensity (a.u.). In the case of “TGGAATAATTAATAGGAGTATTGCTTGTGTTGATGTGTGTCGGAGTCACCTAGTGCAG”, the binding signal is 18200 fluorescence intensity (a.u.). Turning to “TTTGTTAATTGCATGCCTTGCACACTATTGCAAGAACCTACGGAGTCACCTAGTGCAG”, the binding signal was 13200 fluorescence intensity (a.u.). In the case of “TATTCATAAATTACTTTTCATTTACAAATATGCCGTTTCGCGGAGTCACCTAGTGCAG”, the binding signal was 6830 fluorescence intensity (a.u.). For the sequence “CTTTCTAATAATTGTCACTATGCGTAGCTTCTTGCAATCCCGGAGTCACCTAGTGCAG”, the binding signal was 4300 fluorescence intensity (a.u.).

Take “TCTAATTAGCTAGGTCCATTGATTCATCATCATCTCCATTCGGAGTCACCTAGTGCAG”: the binding signal was 30100 fluorescence intensity (a.u.). As for “AGGTAATCACACGGAATCAGCCATTGGAACGTTCTTGCCACGGAGTCACCTAGTGCAG”, the binding signal is 8230 fluorescence intensity (a.u.). On to “CGTTATGATCAAAATTACACAAAACTACAAGGATTTTGACCGGAGTCACCTAGTGCAG”, for which the binding signal is 5340 fluorescence intensity (a.u.). With “CCCTGACTGATAGTGGGCCACCCACTGCCAGGTCGGCCCCCGGAGTCACCTAGTGCAG”, the binding signal is 35900 fluorescence intensity (a.u.). For “GTGATAGATCAACCTGTAAACTAAACAGAGCCTTAGCATCCGGAGTCACCTAGTGCAG”, the binding signal is 7680 fluorescence intensity (a.u.). Consider “CATTTATTAATTGGTCATAGCCACCAGTCCTGCTGGTGTGCGGAGTCACCTAGTGCAG”, for which the binding signal was 13500 fluorescence intensity (a.u.). “TCCCAAATTTTAATTTCCGAGTCGTAACTGCGGCGGCAACCGGAGTCACCTAGTGCAG”: the binding signal is 8570 fluorescence intensity (a.u.). As for “AGGTGCTAATCATGGATTAATTAGTTTTAATAGATTGTTCCGGAGTCACCTAGTGCAG”, the binding signal was 39100 fluorescence intensity (a.u.). With “AGGCTCATCAATTAAATTCCTGTTACATGTACTACATGTACGGAGTCACCTAGTGCAG”, the binding signal is 17000 fluorescence intensity (a.u.).

“TAGATTAGTAAATTAACCATGTCCTCAAATCCCCTGTCTTCGGAGTCACCTAGTGCAG”: the binding signal was 19800 fluorescence intensity (a.u.).

In the case of “TGCGTGTTATAGAAAGCTAATTGCCTATTTTATGGAAGCACGGAGTCACCTAGTGCAG”, the binding signal was 4640 fluorescence intensity (a.u.). On to “TTGCACAAGTCAGATTGATGAGATTGCCAATTGTTTAACACGGAGTCACCTAGTGCAG”, for which the binding signal was 15600 fluorescence intensity (a.u.).

Regarding “TAAAATAAATTGACAATATAAATTGATATGAAATATACTCCGGAGTCACCTAGTGCAG”, the binding signal was 31700 fluorescence intensity (a.u.).

For the sequence “GCGATAAATAGACACATATGGATGCATGCACAATGGCACACGGAGTCACCTAGTGCAG”, the binding signal is 8870 fluorescence intensity (a.u.).

Regarding “AGGTGGACCCACTAATTAATTTTGCCAATTAAATCTCCATCGGAGTCACCTAGTGCAG”, the binding signal was 14000 fluorescence intensity (a.u.). Regarding “AAACAAACTAACATGGATTGATTTTCTATAGGATGGAGGGCGGAGTCACCTAGTGCAG”, the binding signal was 25200 fluorescence intensity (a.u.). On to “CCAATATTAATTTCGGTAAAATACGAAATGACTAATATGCCGGAGTCACCTAGTGCAG”, for which the binding signal is 6210 fluorescence intensity (a.u.).

“CTACAATTATTTATATATTTTAAGTTTAAATATACTGTAACGGAGTCACCTAGTGCAG”: the binding signal is 5320 fluorescence intensity (a.u.).

“TTCATTAATTAATAATACTAGCCTAGTGGTGACACCACCCCGGAGTCACCTAGTGCAG”: the binding signal is 24100 fluorescence intensity (a.u.). The figure for “TTCCTTATCAATCTAATAAATAGTCGCCATTGCAGATGGACGGAGTCACCTAGTGCAG” is 10900 fluorescence intensity (a.u.); for “AATAGAAATTGGACATTCTACCGCTGCTAAGATTTTGCCACGGAGTCACCTAGTGCAG” it is 3630 fluorescence intensity (a.u.). Regarding “AGAATTGAATTAACTTCCCTGCAAATATCACAGAATGCTTCGGAGTCACCTAGTGCAG”, the binding signal is 3910 fluorescence intensity (a.u.).

“CAAGCTAAATTGTCAAATAGGTCGAATATTTTGCATCCTGCGGAGTCACCTAGTGCAG”: the binding signal is 6560 fluorescence intensity (a.u.). With “GATGATTTAGCCCAAAAGGTGTTACTGATCACACTACTTGCGGAGTCACCTAGTGCAG”, the binding signal is 10600 fluorescence intensity (a.u.). In the case of “TCGTGATTTTGATCAACTTAACATGGAAAATGGCCATCCTCGGAGTCACCTAGTGCAG”, the binding signal was 32200 fluorescence intensity (a.u.). With “GTATTACGCTATATTTAACATAATTGCTCCTATCATGTGTCGGAGTCACCTAGTGCAG”, the binding signal was 3680 fluorescence intensity (a.u.). With “TCCACCAATAATTAGACCAATCGTGAAACTATCGAGAGAACGGAGTCACCTAGTGCAG”, the binding signal was 7660 fluorescence intensity (a.u.). Turning to “CAAAATGGGATTTAAATTTTGTCTCGGACCTCACTAAAATCGGAGTCACCTAGTGCAG”, the binding signal was 6390 fluorescence intensity (a.u.). With “AAAATTAAAAGGACATGATTATTGATACCGGATTTTGAAACGGAGTCACCTAGTGCAG”, the binding signal is 11200 fluorescence intensity (a.u.). As for “AATTAATTACGTGCTAGTGTACGCTATTCACTACTTCATGCGGAGTCACCTAGTGCAG”, the binding signal is 29600 fluorescence intensity (a.u.).

As for “TTAAATTAATTTGGGCCATTCGATCTTCATCAGGATATCTCGGAGTCACCTAGTGCAG”, the binding signal was 39800 fluorescence intensity (a.u.). Take “CGTTGATCATTTATTGACATTATAGTTACTCTGCAGTGCACGGAGTCACCTAGTGCAG”: the binding signal is 14600 fluorescence intensity (a.u.). For the sequence “AAATAATAATTATTTATTTTGTTGTGACTTGGTTTATAACCGGAGTCACCTAGTGCAG”, the binding signal was 14300 fluorescence intensity (a.u.). Take “GATAATAATATTGCAATTTGCAAACATTACACTTGTACAGCGGAGTCACCTAGTGCAG”: the binding signal was 4080 fluorescence intensity (a.u.).

Values taken from paper PMC7819943, “Rice protein-binding microarrays: a tool to detect cis-acting elements near promoter regions in rice”.
